The IC50 comes from the fitted curve, where viability falls to half of the control; a limit (>, <) means that the fit lies beyond the doses tested. AUC sums up the same curve from the lowest dose to the 256-fold higher top dose; it is 1 without any effect and falls as sensitivity rises. For some of these results: Any top dose called inferred is not printed in the source and was worked back from the curve model. For some of these results: Drugs with an entry number were screened twice under separate entries, and the two screens often disagree.
Key:
Assay in all cases: Viability of human cancer cell lines after 72 h of drug (GDSC screen)
SNX-2112 = compound: CC1(C)CC(=O)c2c(C(F)(F)F)nn(-c3ccc(C(N)=O)c(N[C@H]4CC[C@H](O)CC4)c3)c2C1 [SNX-2112]; conditions: top dose 2.56 µM
Protocol: (§1)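 Human cancer cell lines in 384-well plates, medium with 10% serum, drug for 72 h over a 256-fold dose range (nine 2-fold or five 4-fold steps up to the top dose). Adherent lines were fixed and stained with the nucleic acid dye Syto60, suspension lines read with resazurin; signal relative to control wells, capped at 0 and 100%. One two-parameter sigmoid per drug and line, fitted in a mixed model over all curves with the slope shared within a line.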

Vinblastine = compound: CC[C@]1(O)C[C@@H]2CN(CCc3c([nH]c4ccccc34)[C@@](C(=O)OC)(c3cc4c(cc3OC)N(C)[C@H]3[C@@](O)(C(=O)OC)[C@H](OC(C)=O)[C@]5(CC)C=CCN6CC[C@]43[C@@H]65)C2)C1 [Vinblastine]; conditions: top dose 0.1 µM; top dose inferred
Protocol: as §1

Afatinib = compound: CN(C)C/C=C/C(=O)Nc1cc2c(Nc3ccc(F)c(Cl)c3)ncnc2cc1O[C@H]1CCOC1 [Afatinib]
Protocol: as §1

PF-562271 = compound: CN(c1ncccc1CNc1nc(Nc2ccc3c(c2)CC(=O)N3)ncc1C(F)(F)F)S(C)(=O)=O [PF-562271]; conditions: top dose 2.56 µM; top dose inferred
Protocol: as §1

XMD13-2 = compound: O=C(NC1CC1)c1cccc(-c2ccc3c(NC(=O)C4CC4)n[nH]c3c2)c1 [XMD13-2]; conditions: top dose 10.24 µM; top dose inferred
Protocol: as §1

[1] = top dose 0.5 µM, screen: GDSC drug entry 1032
[2] = top dose 10 µM, screen: GDSC drug entry 1377, top dose inferred

Cell Line	AUC (SNX-2112)	IC50 (SNX-2112) [nM]	AUC (Vinblastine)	IC50 (Vinblastine) [nM]	AUC (Afatinib; [1])	IC50 (Afatinib; [1]) [nM]	AUC (Afatinib; [2])	IC50 (Afatinib; [2]) [nM]	AUC (PF-562271)	IC50 (PF-562271) [nM]	AUC (XMD13-2)	IC50 (XMD13-2) [nM]
ALL-PO (lymphoblastic leukaemia, suspension)	0.201	19.6	0.287	1.5	0.932	> 500	0.981	> 10000	0.764	980	0.78	4460
NCI-H1876 (small cell lung carcinoma, adherent)	0.83	1630	0.572	9.88	0.983	> 500	0.965	> 10000	0.987	> 2560	0.912	> 10200
UMC-11 (lung carcinoid, adherent)	0.745	735	0.801	42.9	0.988	> 500	0.987	> 10000	0.953	> 2560	0.93	> 10200
HSC-39 (stomach, suspension)	0.989	> 2560	0.519	6.99	0.983	> 500	0.972	> 10000	0.99	> 2560	0.867	7190
COLO-824 (breast, adherent)	0.525	187	0.873	99.4	0.975	> 500	0.963	> 10000	0.925	> 2560	0.969	> 10200
U-118-MG (glioma, adherent)	0.531	197	0.706	26.3	0.984	> 500	0.982	> 10000	0.981	> 2560	0.974	> 10200
SKG-IIIa (cervix, adherent)	0.977	> 2560	0.629	16.1	0.915	> 500	0.918	> 10000	0.936	> 2560	0.983	> 10200
RMG-I (ovary, adherent)	0.842	2260	0.859	> 100	0.94	> 500	0.336	201	0.957	> 2560	0.96	> 10200
MKN28 (stomach, adherent)	0.795	1220	0.596	11.5	0.973	> 500	–	–	0.897	> 2560	0.955	> 10200
KINGS-1 (glioma, adherent)	0.416	86.2	0.542	8.5	0.933	> 500	0.97	> 10000	0.89	> 2560	0.911	> 10200
SW626 (ovary, adherent)	0.685	584	0.69	23.7	0.966	> 500	0.97	> 10000	0.926	> 2560	0.885	> 10200
ES5 (Ewing sarcoma, adherent)	0.351	58	0.464	4.93	0.934	> 500	0.96	> 10000	0.91	> 2560	0.703	2620
L-540 (Hodgkin lymphoma, suspension)	0.877	2100	0.461	4.96	0.986	> 500	0.974	> 10000	0.954	> 2560	0.903	> 10200
JEG-3 (urogenital system, adherent)	0.991	> 2560	0.554	8.66	0.988	> 500	0.979	> 10000	0.977	> 2560	0.99	> 10200
ECC10 (stomach, suspension)	0.85	2080	0.641	15.6	0.975	> 500	0.973	> 10000	0.847	2010	0.902	> 10200
SU-DHL-5 (B-cell lymphoma, suspension)	0.2	28.4	0.273	1.72	0.988	> 500	0.547	812	0.897	1780	0.844	4800
COLO-679 (melanoma, adherent)	0.605	323	0.635	15.5	0.972	> 500	0.949	> 10000	0.883	> 2560	0.923	> 10200
SF539 (glioma, adherent)	0.578	256	0.37	2.86	0.967	> 500	0.964	> 10000	0.948	> 2560	0.879	8700
NCI-H1648 (lung adenocarcinoma, adherent)	0.725	727	0.496	6.08	0.837	365	0.718	2710	0.906	> 2560	0.921	> 10200
NB10 (neuroblastoma, adherent)	0.59	281	0.54	8.03	0.976	> 500	0.959	> 10000	0.967	> 2560	0.92	> 10200
SCC-4 (head and neck, adherent)	0.474	135	0.385	2.84	0.955	> 500	0.796	5690	0.847	2440	0.975	> 10200
SK-ES-1 (Ewing sarcoma, semi-adherent)	0.423	97.4	0.59	11.2	0.98	> 500	0.981	> 10000	0.88	> 2560	0.875	> 10200
